Our source for the binding values is publication PMC4393021.

Chains of the proteins cited; added tags and fusions are not shown.
UniProt O43707: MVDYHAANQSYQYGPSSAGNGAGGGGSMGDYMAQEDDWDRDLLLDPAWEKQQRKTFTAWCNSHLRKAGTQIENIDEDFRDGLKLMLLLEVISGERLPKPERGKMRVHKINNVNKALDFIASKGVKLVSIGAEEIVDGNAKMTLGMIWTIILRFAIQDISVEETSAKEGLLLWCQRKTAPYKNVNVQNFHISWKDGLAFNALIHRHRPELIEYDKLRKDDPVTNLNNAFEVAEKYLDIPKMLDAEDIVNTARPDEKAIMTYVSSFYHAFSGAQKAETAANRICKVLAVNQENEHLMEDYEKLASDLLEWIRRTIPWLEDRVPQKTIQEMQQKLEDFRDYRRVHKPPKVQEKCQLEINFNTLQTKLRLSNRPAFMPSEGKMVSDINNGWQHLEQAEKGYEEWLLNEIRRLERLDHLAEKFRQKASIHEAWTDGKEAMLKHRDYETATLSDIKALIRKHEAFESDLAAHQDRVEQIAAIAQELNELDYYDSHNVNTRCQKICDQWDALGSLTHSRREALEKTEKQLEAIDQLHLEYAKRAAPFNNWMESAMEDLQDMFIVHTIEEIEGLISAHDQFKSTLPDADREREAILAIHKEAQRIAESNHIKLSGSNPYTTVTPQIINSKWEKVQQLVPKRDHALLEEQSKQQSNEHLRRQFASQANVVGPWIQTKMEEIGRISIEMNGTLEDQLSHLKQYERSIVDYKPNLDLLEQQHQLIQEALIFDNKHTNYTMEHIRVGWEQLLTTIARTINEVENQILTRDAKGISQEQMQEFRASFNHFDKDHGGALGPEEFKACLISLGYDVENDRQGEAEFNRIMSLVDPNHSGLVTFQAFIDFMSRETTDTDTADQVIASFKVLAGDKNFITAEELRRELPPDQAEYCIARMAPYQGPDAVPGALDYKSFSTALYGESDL
UniProt P12814: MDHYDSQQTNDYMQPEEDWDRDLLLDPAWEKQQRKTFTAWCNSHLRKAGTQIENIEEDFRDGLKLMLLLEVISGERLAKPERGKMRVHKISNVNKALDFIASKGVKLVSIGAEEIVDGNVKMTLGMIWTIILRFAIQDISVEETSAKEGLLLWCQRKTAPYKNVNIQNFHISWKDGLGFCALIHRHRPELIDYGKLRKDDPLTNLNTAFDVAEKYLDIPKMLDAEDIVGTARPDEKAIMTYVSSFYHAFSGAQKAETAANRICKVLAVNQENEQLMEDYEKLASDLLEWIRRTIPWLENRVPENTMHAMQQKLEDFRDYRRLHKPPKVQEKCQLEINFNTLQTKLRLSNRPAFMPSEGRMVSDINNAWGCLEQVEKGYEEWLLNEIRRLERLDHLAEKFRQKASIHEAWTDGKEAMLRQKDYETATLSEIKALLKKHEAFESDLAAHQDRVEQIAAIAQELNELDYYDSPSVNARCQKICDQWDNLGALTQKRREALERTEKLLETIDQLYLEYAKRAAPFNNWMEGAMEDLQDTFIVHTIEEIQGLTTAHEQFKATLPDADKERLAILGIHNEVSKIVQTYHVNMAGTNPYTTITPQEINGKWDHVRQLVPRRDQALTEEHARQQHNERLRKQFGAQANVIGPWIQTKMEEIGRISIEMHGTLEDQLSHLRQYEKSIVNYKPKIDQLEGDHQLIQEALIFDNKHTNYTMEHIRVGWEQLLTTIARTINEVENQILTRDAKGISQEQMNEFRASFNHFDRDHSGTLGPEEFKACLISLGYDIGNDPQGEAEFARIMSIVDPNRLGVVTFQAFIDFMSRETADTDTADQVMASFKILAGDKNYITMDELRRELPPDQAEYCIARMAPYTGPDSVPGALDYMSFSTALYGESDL

These are yes or no findings as the source states them, for the method shown. Some entries that bind do so weakly or less than the wild type. Where a sequence is shown, tags or fusion partners need not be part of it.

The target of test [1] is T1, FLAG-tagged full-length zyxin (FLAG-ZYX-full, aa 1–572) (human) (UniProt Q15942).
T1 sequence: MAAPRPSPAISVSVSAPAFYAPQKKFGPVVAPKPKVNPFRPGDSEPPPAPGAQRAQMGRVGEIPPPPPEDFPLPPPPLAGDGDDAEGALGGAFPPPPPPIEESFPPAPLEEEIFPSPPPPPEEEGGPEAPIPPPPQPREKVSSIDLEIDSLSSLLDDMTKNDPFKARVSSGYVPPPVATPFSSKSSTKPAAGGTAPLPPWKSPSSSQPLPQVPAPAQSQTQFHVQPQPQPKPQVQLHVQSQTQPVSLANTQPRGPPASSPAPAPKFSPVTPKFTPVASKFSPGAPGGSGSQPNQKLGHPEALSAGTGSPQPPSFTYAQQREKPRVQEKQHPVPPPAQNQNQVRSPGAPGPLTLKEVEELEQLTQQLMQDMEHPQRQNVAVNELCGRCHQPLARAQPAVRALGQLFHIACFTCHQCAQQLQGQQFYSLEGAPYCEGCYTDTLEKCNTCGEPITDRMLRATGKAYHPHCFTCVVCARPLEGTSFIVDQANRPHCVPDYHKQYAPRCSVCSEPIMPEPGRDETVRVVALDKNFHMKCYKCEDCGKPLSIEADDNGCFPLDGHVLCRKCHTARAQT
In words: pull-down; FLAG-ZYX-full or FLAG-ZYX-C bound to anti-FLAG M2 affinity gel mixed with purified His-ACTN1 or His-ACTN4, 2 h in IP buffer (20 mM Tris pH 7.4, 100 mM NaCl, 0.5% NP-40, 1 mM EDTA, 1 mM PMSF); bound ACTN detected by western blot with anti-pan-actinin antibody; both purified. (In western blotting, separated proteins are transferred to a membrane and probed.)

In test [2] the target is T2, FLAG-ZYX-C (zyxin amino acids 52–572, N-terminal deletion mutant) (human) (UniProt Q15942).
T2 sequence: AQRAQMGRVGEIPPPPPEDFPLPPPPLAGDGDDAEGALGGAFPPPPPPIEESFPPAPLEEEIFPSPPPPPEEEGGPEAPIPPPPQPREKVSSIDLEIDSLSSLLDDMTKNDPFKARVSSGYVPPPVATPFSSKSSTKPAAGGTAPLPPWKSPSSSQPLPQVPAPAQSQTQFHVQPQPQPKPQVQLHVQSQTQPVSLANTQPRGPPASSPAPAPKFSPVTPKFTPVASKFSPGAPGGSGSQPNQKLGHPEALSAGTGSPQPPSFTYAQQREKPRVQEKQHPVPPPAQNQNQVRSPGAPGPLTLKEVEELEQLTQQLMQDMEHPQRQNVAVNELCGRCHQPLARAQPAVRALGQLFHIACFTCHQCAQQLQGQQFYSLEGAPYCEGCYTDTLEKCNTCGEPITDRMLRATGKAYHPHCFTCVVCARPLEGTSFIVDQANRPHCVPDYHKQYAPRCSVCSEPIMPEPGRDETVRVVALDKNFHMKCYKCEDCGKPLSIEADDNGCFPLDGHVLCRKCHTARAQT
The description is as above.

Test [3] deals with T3, GST-ZYX-N (zyxin amino acids 1–51) (human) (UniProt Q15942).
T3 sequence: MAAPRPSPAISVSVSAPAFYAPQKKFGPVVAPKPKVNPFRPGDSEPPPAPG
In words: pull-down; GST-ZYX-N bound to Glutathione Sepharose 4B incubated with purified His-ACTN1 or His-ACTN4 for 2 h in binding buffer (lysis buffer: 40 mM Tris pH 7.5, 150 mM NaCl, 0.5% Triton X-100, 5 mM EDTA, 1 mM PMSF, plus 1.0% BSA); washed thrice; bound ACTN detected by western blot with anti-His-tag antibody; both purified.

Regarding “His-tagged human full length α-actinin-4 (ACTN4) (from UniProt O43707 1-911)”, the binding result in test [1], in test [2] and in test [3] was “no binding” throughout.
Consider “His-tagged human full length α-actinin-1 (ACTN1) (from UniProt P12814 1-892)”, for which the binding result in test [1] was “binds”; in test [2], “no binding”; in test [3] it was “binds”.
